# In PubChem BioAssay AID902 (National Center for Advancing Translational Sciences (NCATS), 2007):
# Screen size: about 130,000 compounds; about 1,900 (1.5%) were called active. This list was built around the results that the source calls inconclusive (neither active nor inactive); the mix of calls is not that of the screen. The call rests on the fitted dose curve; in most records, active means well fitted cell-killing curve with a large enough effect; inconclusive means small, poorly fitted or top-dose-only effect; inactive means no such curve, though single readings can be large or run the other way. A potency beside an inconclusive call is a rough fit, not a confirmed value.
# Assay: qHTS Screen for Compounds that Selectively Target Cancer Cells with p53 Mutations: Cytotoxicity of p53ts Cells at the Nonpermissive Temperature; further: nearly all actives have a fitted effect of over 55% in size
# Settings: H1299-p53A138V viability at 39C, ATP luminescence, 24 h; activity change, negative = cell killing: at 46.1 µM (top of the series)
# On the % scale 0 is the no-effect control and ±100 the full control effect; potency means the concentration at half of the fitted maximal effect; tags describe the fitted curve by direction and shape.
SMILES,Potency,"activity change, negative = cell killing"
CCOC(=O)c1cc(-c2ccc(OC)cc2)n(CCC(=O)Nc2cccc(C(C)=O)c2)c1C,"inconclusive: 17.8 µM [cytotoxic, partial curve, poor fit]",–
COc1ccc(CNS(=O)(=O)c2ccc(F)c(C(=O)Nc3c(C)cc(C)cc3C)c2)cc1,"inconclusive: 0.251 µM [cytotoxic, full curve]",–
Nc1nc2c(cnn2CCc2ccccc2)c2nc(-c3ccco3)nn12,"inconclusive: 10 µM [cytotoxic, partial curve]",–
Cc1ccc(NC(=O)Cn2cc(C(=O)c3ccco3)c3ccccc32)c(C)c1,"inconclusive: 7.94 µM [cytotoxic, partial curve, poor fit]",–
CC(C)(C)c1nc(SCC(=O)NCc2ccco2)c2ccccc2n1,"inconclusive: 25.1 µM [cytotoxic, single point]",–
CC(=O)Nc1cccc(NC(=O)CSc2nccn2Cc2ccco2)c1,–,inconclusive: -31.8% [cytotoxic]
Cc1ccc(S(=O)(=O)C(CNC(=O)COc2ccc(Cl)cc2)c2ccco2)cc1 (stereo not given),inactive,–
Cc1ccc(NC(=O)c2ccc3c(c2)NC(=O)c2ccccc2S3)cc1,"inconclusive: 12.6 µM [cytotoxic, partial curve]",–
Cc1ccc(C)c2c(SC(C)C(=O)NCc3ccco3)nc(-c3ccccc3)nc12 (stereo not given),inactive,–
COc1ccc(NC(=O)Nc2cccc(-c3cn4cccnc4n3)c2)cc1,"inconclusive: 2.51 µM [cytotoxic, single point]",–
COc1ccc(Nc2nccc3c2nnn3C)cc1,"inconclusive: 10 µM [cytotoxic, partial curve]",–
Cc1ccc(CNC(=O)c2cc3c(s2)-c2ccc(Cl)cc2SC3)cc1,"inconclusive: 31.6 µM [cytotoxic, partial curve]",–
Cc1ccc(CSC2=Nc3ccccc3C3=NC(CC(=O)NCc4cccs4)C(=O)N23)cc1 (stereo not given),"inconclusive: 3.16 µM [cytotoxic, partial curve, poor fit]",–
Cc1ccc(CNC(=O)c2sc3nc(-c4ccc(F)cc4)ccc3c2N)cc1,"inconclusive: 31.6 µM [cytotoxic, single point]",–
COCCn1c(=O)cnc2cnc(N3CCNCC3)nc21,inactive,–
O=C(c1cccc(F)c1)N1CCC(c2c[nH]c3ccccc23)(c2c[nH]c3ccccc23)CC1,"inconclusive: 0.0079 µM [cytotoxic, full curve]",–
COc1ccc(C(=O)Nc2nnc(S(=O)(=O)N3CCC(C)CC3)s2)cc1OC,"inconclusive: 25.1 µM [cytotoxic, single point]",–
CCOc1ccc(NC(=O)NCCn2nnc3cc(S(=O)(=O)N(C)C)ccc32)cc1,inactive,–
CCOc1ccc2nc(NC(=O)COC)sc2c1,"inconclusive: 12.6 µM [cytotoxic, partial curve]",–
COc1ccc(NC(=O)C(=O)NCC(c2cccnc2)N2CCc3ccccc3C2)cc1 (stereo not given),active: 10 µM,–
CCc1nc(Nc2ccc(N3CCN(C(C)=O)CC3)cc2)c2oc3ccccc3c2n1,"inconclusive: 31.6 µM [cytotoxic, single point]",–
O=S(=O)(Nc1cccc(-c2ccc(N3CCOCC3)nn2)c1)c1ccccc1C(F)(F)F,"inconclusive: 12.6 µM [cytotoxic, partial curve]",–

SMILES,Potency,"activity change, negative = cell killing"
COCCNC(=O)c1ccc(Cc2nc3ccccc3[nH]2)cc1,inactive,–
COc1ccc(-c2nnc(Nc3nc4c(OC)cccc4s3)o2)cc1,active: 12.6 µM,–
Brc1ccc(CN2CCc3nc(N4CCN(c5ncccn5)CC4)ncc3C2)cc1,"inconclusive: 35.5 µM [cytotoxic, single point]",–
O=C(NC1=NCCS1)c1ccc(OCC2CCCO2)cc1 (stereo not given),"inconclusive: 15.8 µM [cytotoxic, partial curve]",–
Cc1ccccc1NC(=O)c1c(NC(=O)C(F)(F)F)sc2c1CCCCC2,"inconclusive: 6.31 µM [cytotoxic, partial curve]",–
CN1CCc2c(OCC(=O)N3N=C(c4cccs4)CC3c3ccc(F)cc3)cccc2C1=O (stereo not given),"inconclusive: 12.6 µM [cytotoxic, single point]",–
Cn1c(=O)n(CCc2ccccc2)c(=O)c2c1nc1n2CCCN1CCc1ccccc1,"inconclusive: 31.6 µM [cytotoxic, single point]",–
O=C(CCSCc1ccccc1Cl)N1CCN(c2ccc(F)cc2)CC1,"inconclusive: 0.794 µM [cytotoxic, full curve, poor fit]",–
CCC1=C2CC[C@H]3C(=O)N(CC(=O)OC)C(=O)[C@H]3[C@H]2[C@@]2(C)C(=O)N(Cc3ccccc3)C(=O)N2C1=O,inactive,–
CCc1cccc(C)c1NC(=O)C(CC)n1ncn2c(cc3cc(C)ccc32)c1=O (stereo not given),"inconclusive: 31.6 µM [cytotoxic, single point]",–
COc1cc(NC(=O)c2ccco2)c(OC)cc1NC(=O)Nc1ccc(Cl)cc1,"inconclusive: 31.6 µM [cytotoxic, single point]",–
COc1ccc(-c2cc(C(F)(F)F)nc(SCCC(=O)Nc3cccc(O)c3)n2)cc1,"inconclusive: 15.8 µM [cytotoxic, single point]",–
COc1cc2nc(Nc3ccc(F)cc3)nc(N)c2cc1OC,"inconclusive: 25.1 µM [cytotoxic, single point]",–
CCOC(=O)c1cccc(NC(=O)C(Cc2ccccc2)NS(=O)(=O)c2cccc3nsnc23)c1 (stereo not given),inactive,–
CC1=C(C(=O)OCC2CCCCC2)C(c2ccc(Cl)cc2Cl)CC(=O)N1 (stereo not given),"inconclusive: 31.6 µM [cytotoxic, single point]",–
CC(=O)c1ccc(NC(=O)c2nc3ccccc3n(C)c2=O)cc1,active: 2.51 µM,–
Clc1ccc(CNc2cc(-c3ccccc3)nc3nncn23)cc1,"inconclusive: 31.6 µM [cytotoxic, single point]",–
Cc1nc2sc(C(c3cccs3)N3CCN(C(=O)c4ccco4)CC3)c(O)n2n1 (stereo not given),"inconclusive: 10 µM [cytotoxic, partial curve]",–
CCN(c1ccccc1)S(=O)(=O)c1ccc2[nH]cc(C(=O)NCc3ccc(C)cc3)c(=O)c2c1,inactive,–
COc1cccc(-n2cc(C(=O)Nc3cc(C)c(Cl)cc3OC)c3ccccc3c2=O)c1,"inconclusive: 5.62 µM [cytotoxic, single point]",–
CC1=CC(C)(C)N2C(=O)C3(N=C(N)NC(Nc4ccccc4)=N3)c3cc(C)cc1c32 (stereo not given),"inconclusive: 31.6 µM [cytotoxic, single point]",–
c1c2c(cc3sc(N4CCCCC4)nc13)OCO2,active: 10 µM,–

SMILES,Potency,"activity change, negative = cell killing"
CC(C)=CCc1c2c(c3occ(-c4ccc(O)c(O)c4)c(=O)c3c1O)C=CC(C)(C)O2,"inconclusive: 31.6 µM [cytotoxic, single point]",–
CCc1ccccc1NC(=O)Nc1cc(C(=O)NCc2ccc(OC)cc2)ccc1N1CCCC1,"inconclusive: 31.6 µM [cytotoxic, single point]",–
Cc1nnc2c3ccccc3nc(Nc3cccc(O)c3)n12,"inconclusive: 0.0251 µM [cytotoxic, full curve, poor fit]",–
COc1ccc(-c2noc(CSc3nc(N)cc(=O)[nH]3)n2)cc1OC,inactive,–
CCOc1ccc2nc(N3CCCC(C(=O)NCc4ccccc4OC)C3)sc2c1 (stereo not given),"inconclusive: 10 µM [cytotoxic, partial curve, poor fit]",–
COc1ccc(CCNc2oc(-c3ccccc3OC)nc2C#N)cc1,inactive,–
O=C(NCCCCN1CCCC1)c1ccc(-n2c(=O)c(=O)[nH]c3ccccc32)cc1,inactive,–
Cc1ccc(Cl)cc1NC(=O)C1CCN(c2nc3ccccc3n3cccc23)CC1,"inconclusive: 31.6 µM [cytotoxic, single point]",–
Cc1cc(C)cc(-n2ccn(Cc3ccc(F)cc3)c(=O)c2=O)c1,"inconclusive: 31.6 µM [cytotoxic, partial curve, poor fit]",–
O=c1c2sc3ccccc3c2n(Cc2cccc(C(F)(F)F)c2)c(=O)n1Cc1ccc(F)cc1,"inconclusive: 31.6 µM [cytotoxic, single point]",–
Cc1ccc(CNC(=O)CCCN2C(=O)COc3ccc(C)cc32)cc1,"inconclusive: 20 µM [cytotoxic, partial curve, poor fit]",–
Cc1cccc(NC(=O)C(=O)NCCc2csc(-c3ccc(C(F)(F)F)cc3)n2)c1C,"inconclusive: 31.6 µM [cytotoxic, single point]",–
COc1ccc(-c2nc3nc(C)c(Cc4ccccc4)c(=O)n3[nH]2)cc1,"inconclusive: 12.6 µM [cytotoxic, partial curve]",–
COc1ccc(CNC(=O)Cn2nc(C)c3c(C)n(-c4ccccc4)nc3c2=O)cc1OC,inactive,–
Cn1c(=O)c2nc(SCC(=O)Nc3ccc(Cl)c(Cl)c3)n(C)c2n(C)c1=O,"inconclusive: 0.005 µM [cytotoxic, full curve, poor fit]",–
O=C(CSc1oc(-c2ccccc2)nc1S(=O)(=O)c1ccccc1)c1ccccc1,"inconclusive: 1.26 µM [cytotoxic, partial curve, poor fit]",–
COc1cccc(NC(=O)c2ccc3nc(Cc4ccccc4)oc3c2)c1,inactive,–
CCc1ccc(-n2c(SCc3cccc(F)c3)nc3[nH]ncc3c2=O)cc1,"inconclusive: 20 µM [cytotoxic, single point]",–
Cc1n[nH]c(=S)n(/N=C/c2ccccn2)c1=O,"inconclusive: 31.6 µM [cytotoxic, single point]",–
O=[N+]([O-])c1ccc(Cl)c(CNc2ncnc3c2ncn3[C@@H]2CCCCO2)c1,–,inactive: 17.8% [at 9.22 µM]
Cc1ccccc1-n1c(=O)cc(N2CCN(C(=O)c3ccco3)CC2)[nH]c1=O,"inconclusive: 12.6 µM [cytotoxic, single point]",–
